# About 5,000 (1.2%) of roughly 410,000 compounds were called active. This list was built around the results that the source calls inconclusive (neither active nor inactive); the mix of calls is not that of the screen. The call rests on the fitted dose curve; in most records, active means well fitted inhibition curve with a large enough effect; inconclusive means small, poorly fitted or top-dose-only effect; inactive means no such curve, though single readings can be large or run the other way. Potencies beside an inconclusive call are fits to weak or partial responses and may not hold up.
# Test: qHTS for Inhibitors of TGF-b; further: nearly all actives have a fitted effect of over 65% in size
# Conditions: HepG2 CAGA-GFP TGF-b/SMAD3 reporter, GFP fluorescence, 18 h, TGF-beta stimulated, 500 pg/mL final; series mostly up to 46.1 µM; activity, negative = inhibition: at the top concentration
# How it was run: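 GFP signal (ex488/em500-530) from TGF-beta-stimulated HEPG2 CAGA-GFP cells, 500 pg/mL final, 18 h at 37 degrees C in DMEM plus 1% FBS, normalized to unstimulated and DMSO-stimulated controls.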
# On the % scale 0 is the no-effect control and ±100 the full control effect; potency means the concentration at half of the fitted maximal effect; tags describe the fitted curve by direction and shape.
Compound,Potency,"activity, negative = inhibition"
O=C(c1[nH]ncc1-c1ccc(Cl)cc1)C1CO1 (centres undefined),"inconclusive: 25.1 µM [inhibitor, partial curve]",–
CN=c1scc(-c2ccc(F)cc2)n1/N=C/c1ccc(O)c(O)c1,"inconclusive: 35.5 µM [inhibitor, single point]",–
C=CC[C@H](CC(=O)N(CCO)Cc1ccccc1)C(=O)N[C@H](C)COC(=O)[C@@H](CC=C)Cc1ccc(F)cc1,"inconclusive: 5.62 µM [inhibitor, single point]",–
Cc1cccc(N(C(=O)CS(=O)CC(=O)Nc2ccc3c(c2)OCO3)C(C)C(=O)NC2CCCC2)c1C (centres undefined),"inconclusive: 10 µM [inhibitor, partial curve, poor fit]",–
COc1cccc(/C=C2/Sc3ccc(C(=O)NCCN4CCCCCC4)cc3NC2=O)c1,active: 10 µM,–
CCc1ccc2c(c1)NC(=O)C2(C)Cc1ccc(C(F)(F)F)o1 (centres undefined),"inconclusive: 17.8 µM [inhibitor, single point]",–
CC(C)CCNC(=O)CN(Cc1ccc2c(c1)OCO2)C(=O)CCC(=O)Nc1ccccn1,–,inactive: -19.3%
COc1cccc(/C=N/Nc2ncnc3scc(-c4ccccc4)c23)c1OC,"inconclusive: 22.4 µM [inhibitor, single point]",–
O=C1CCCC2=C1C1(CCCC1)N=C(Nc1nc3cc(-c4ccccc4)ccc3o1)N2,"inconclusive: 10 µM [inhibitor, partial curve, poor fit]",–
c1ccc(COC2CCCN(Cc3nc(Cc4ccccc4)no3)C2)cc1 (centres undefined),"inconclusive: 7.08 µM [inhibitor, partial curve]",–
COc1ccc(C(=O)c2ccccc2)c(O)c1,"inconclusive: 3.98 µM [inhibitor, single point]",–
Cc1cccc(N(CC(=O)NCCc2ccccc2)S(=O)(=O)c2ccccc2)c1C,"inconclusive: 28.2 µM [inhibitor, single point]",–
COc1ccc(-c2nc(Cn3c(SCc4ccc(C)cc4)nc4ccncc43)c(C)o2)cc1OC,"inconclusive: 35.5 µM [inhibitor, single point]",–
CN(C)c1nc(-c2ccc([N+](=O)[O-])cc2)cs1,"inconclusive: 35.5 µM [inhibitor, single point]",–
CSc1sc(C(=O)NCC2CC2)cc1S(=O)(=O)C(C)C,–,inactive: -1.42%
Cc1ccc(-n2c(=O)c3c(c4cc(C)ccc4n3C)n(CC(=O)Nc3c(C)cccc3C)c2=O)cc1,"inconclusive: 3.16 µM [inhibitor, single point]",–
N#Cc1ccc(S(=O)(=O)N2CCc3[nH]c4ccc(F)cc4c3C2)cc1,–,inactive: 1.56%
CC(C)(C)OC(=O)NCCCCCNC(=O)c1nc[nH]c1C(=O)NCCCCCNC(=O)OC(C)(C)C,"inconclusive: 35.5 µM [inhibitor, single point]",–
Cc1ccc(-c2nc(CS(=O)(=O)CC(=O)NCCCN(Cc3ccccc3)C(C)C)c(C)o2)cc1,"inconclusive: 7.08 µM [inhibitor, full curve, poor fit]",–
Cc1ccc(-n2nc(C(=O)N3CCN(c4cccc(C(F)(F)F)c4)CC3)c(=O)n(C)c2=O)cc1,"inconclusive: 8.91 µM [inhibitor, partial curve, poor fit]",–
Cc1ccc([N+](=O)[O-])cc1S(=O)(=O)Nc1ccc(N2CCOCC2)cc1,"inconclusive: 12.6 µM [inhibitor, single point]",–
O=C(NC1CCCC1)C(c1ccncc1)N(CC1CCCO1)C(=O)Cn1nnc(-c2cccs2)n1 (centres undefined),–,inactive: 7.86%

Compound,Potency,"activity, negative = inhibition"
O=C(Cn1cnc2c(nnn2Cc2ccc(Cl)cc2)c1=O)N1CCN(c2ccccc2)CC1,"inconclusive: 35.5 µM [inhibitor, single point]",–
CC(C)N(C(=O)COc1ccc(Br)cc1Cl)C(C)C,"inconclusive: 12.6 µM [inhibitor, single point]",–
COc1ccc(-n2nc([N+](=O)[O-])c(=NCc3ccc4c(c3)OCO4)n2O)cc1,"inconclusive: 4.47 µM [inhibitor, full curve, poor fit]",–
NC(=O)c1oc2ccccc2c1NC(=O)c1ccc([N+](=O)[O-])o1,active: 7.08 µM,–
O=C(c1cccs1)c1no[n+]([O-])c1C(=O)c1cccs1,active: 25.1 µM,–
COc1cc(NCCCCCCCN)c2ncccc2c1,"inconclusive: 3.16 µM [inhibitor, full curve, poor fit]",–
Cc1ccc(O)c(N=NC2=C(O)CC(C)(C)CC2=O)c1,"inconclusive: 22.4 µM [inhibitor, single point]",–
O=C(NCCC(c1ccccc1)c1ccccc1)c1ccc(Br)o1,"inconclusive: 11.2 µM [inhibitor, single point]",–
CCOC(=O)c1nc(SC)n(C)c1C(=O)OCC,"inconclusive: 35.5 µM [inhibitor, single point]",–
COC(=O)[C@@H](Cc1c[nH]c2ccccc12)NC(=O)C1CCCN(S(=O)(=O)c2ccc(C)cc2)C1 (some centres undefined),"inconclusive: 35.5 µM [inhibitor, single point]",–
Cc1ccc(NS(=O)(=O)c2ccc3c(c2)NC(=O)C(C)C(=O)N3)cc1F (centres undefined),–,inactive: -15.6%
CCc1ccc(CNC(=O)c2ccc3nc(SCc4ccc(F)cc4)n(C)c3c2)cc1,"inconclusive: 8.91 µM [inhibitor, partial curve]",–
COc1cc(NC(=O)c2cc3ccccc3cc2O)c(OC)cc1Cl,active: 4.47 µM,–
COc1cccc(NC(=O)c2nn(-c3ccc(C)cc3)c(=O)n(C)c2=O)c1,–,inactive: 14.4%
O=c1[nH]c(COc2ccc(Cl)cc2Br)nc2ccccc12,"inconclusive: 12.6 µM [inhibitor, partial curve]",–
C[C@@H]1CC=C[C@@H]2[C@H]1C(=O)N(Cc1ccccc1)[C@H]2c1cccc(C#Cc2ccccc2)c1,"inconclusive: 11.2 µM [inhibitor, partial curve, poor fit]",–
Cc1cccc(Nc2nnc(SCC(=O)Nc3ncc(C(F)(F)F)cc3Cl)s2)c1C,"inconclusive: 3.16 µM [inhibitor, full curve, poor fit]",–
Cn1nc(C(F)(F)F)c(C(=O)Nc2ccc(F)cc2F)c1Cl,"inconclusive: 3.16 µM [inhibitor, single point]",–
CCCOC(=O)/C(=C\c1ccc([N+](=O)[O-])o1)NC(=O)c1ccccc1,"inconclusive: 14.1 µM [inhibitor, partial curve, poor fit]",–
CCOc1ccc(NC(=O)CSc2ncc(-c3ccc(F)cc3)n2Cc2ccco2)cc1,active: 15.8 µM,–
Fc1ccc(/C=N/n2c(C3CCCCC3)n[nH]c2=S)cc1,"inconclusive: 35.5 µM [inhibitor, single point]",–
CCCCOc1ccc(S(=O)(=O)Nc2cc(OC)ccc2OC)cc1,"inconclusive: 20 µM [inhibitor, partial curve, poor fit]",–

Compound,Potency,"activity, negative = inhibition"
Cc1ccc(C)c(N2CCN(C(=O)C3CCCCN3S(=O)(=O)c3ccc(F)cc3)CC2)c1 (centres undefined),"inconclusive: 20 µM [inhibitor, single point]",–
Cc1ccccc1CN(C)C[C@@H]1OCc2cnnn2CCCC(=O)N([C@@H](C)CO)C[C@H]1C,–,inactive: 13%
COc1ccc(/C=N/NC(=S)Nc2c(C)n(C)n(-c3ccccc3)c2=O)cc1OC,"inconclusive: 3.98 µM [inhibitor, full curve, poor fit]",–
Cn1nc(C(C)(C)C)cc1C(=O)NN1CCOCC1,–,inactive: 0%
COc1ccccc1/C=C/CN1CCC(n2nccc2NC(=O)CCc2ccccc2)CC1,"inconclusive: 28.2 µM [inhibitor, single point]",–
CCOc1ccc(/C=C2\SC(=S)N(CCC(=O)N(CCO)c3ccccc3)C2=O)cc1,"inconclusive: 35.5 µM [inhibitor, single point]",–
COc1cc(F)ccc1CN1CCC(n2nccc2NC(=O)C2CCOC2)CC1 (centres undefined),"inconclusive: 35.5 µM [inhibitor, single point]",–
CN(C(=O)COc1ncnc2c1cnn2-c1ccccc1)C1CCCCC1,"inconclusive: 6.31 µM [inhibitor, single point]",–
O=C(CN1CCN(CC(=O)Nc2ccc3c(c2)OC2(CCCCC2)O3)CC1)Nc1cccc(F)c1,"inconclusive: 35.5 µM [inhibitor, single point]",–
COc1ccc(C2CC(c3ccccc3OC(C)=O)=NN2C(=O)/C=C/c2ccccc2)cc1OC (centres undefined),active: 10 µM,–
CCCCCCCC(=O)NC(Nc1ccccc1OC)C(Cl)(Cl)Cl (centres undefined),"inconclusive: 35.5 µM [inhibitor, partial curve, poor fit]",–
O=C(CCN1CCOCC1)NNC(=O)Nc1cccc(Cl)c1,–,inactive: 0.286%
O=C(CSc1n[nH]c(Cc2ccccc2)n1)Nc1ccccc1Br,–,inactive: 2.88%
COc1ccccc1NC(=O)N1c2ccccc2Sc2ccccc21,"inconclusive: 11.2 µM [inhibitor, single point]",–
CN(Cc1ccccc1)C(=O)c1ccc(NC(=O)Cc2ccc([N+](=O)[O-])cc2)cc1,"inconclusive: 35.5 µM [inhibitor, single point]",–
CCOC(=O)c1c[nH]c(=S)n(-c2ccccc2)c1=O,"inconclusive: 6.31 µM [inhibitor, single point]",–
CC(=O)Oc1ccccc1N(C(C)=O)S(=O)(=O)c1cccc([N+](=O)[O-])c1,–,inactive: 3.32%
COc1cc(CN2CCC(C(=O)NC(c3ccc(F)cc3)c3ccc4ccccc4n3)CC2)cc(OC)c1 (centres undefined),active: 3.55 µM,–
COc1ccc(OC)c(NC(=O)C2(C)CCN2C(=O)C2(c3ccc(Cl)cc3)CCC2)c1 (centres undefined),"inconclusive: 35.5 µM [inhibitor, single point]",–
CC(Sc1nnnn1-c1ccccc1)C(=O)Nc1ccc(N2CCN(C)CC2)cc1 (centres undefined),–,inactive: -0.637%

# From PubChem BioAssay AID588855 (National Center for Advancing Translational Sciences (NCATS), 2011)
